Data as given in article PMC7819943, “Rice protein-binding microarrays: a tool to detect cis-acting elements near promoter regions in rice”.
Some of the results follow.

These sequences were tested against T1, OsWOX13 (Oryza sativa, UniProt Q5QMM3 1-267) (assay: protein-binding microarray (RPBM); PBS, 2% BSA, 51.3 ng/ul salmon testes DNA, 50 uM zinc acetate, 200 nM TF, 25 C, 1 h; high values mean tight binding). Settings: protein: recombinant; tags: N-terminal polyhistidine and DsRed monomer fusion (pET32a); label: CyDye5-dUTP incorporated in the synthesized complementary strand; 3' TTTTT single-stranded linker to array surface; dsDNA, one strand shown.
T1 sequence: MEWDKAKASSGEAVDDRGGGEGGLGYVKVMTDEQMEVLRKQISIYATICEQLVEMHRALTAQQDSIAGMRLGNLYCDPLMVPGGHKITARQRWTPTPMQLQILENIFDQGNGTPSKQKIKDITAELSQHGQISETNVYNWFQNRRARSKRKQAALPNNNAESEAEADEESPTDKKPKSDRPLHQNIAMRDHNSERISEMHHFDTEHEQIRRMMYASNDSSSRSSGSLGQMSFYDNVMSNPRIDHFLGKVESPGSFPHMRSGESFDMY
Outline: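 The binding signal is fluorescence intensity per array feature (arbitrary units). Readings came from an Axon 4000B scanner after a washed, 2% BSA-blocked, double-stranded custom Agilent array had been incubated for 1 h at 25 °C with 200 nM protein and 50 µM zinc acetate. The protein was a Ni–NTA-purified transcription factor fused N-terminally to polyhistidine and DsRed, expressed in E. coli BL21-CodonPlus.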

Sequence | binding signal
AAATTTTGAAATTGTTAATATGATATAAATGAGATATAGCCGGAGTCACCTAGTGCAG | 3970 fluorescence intensity (a.u.)
ATAAATTTTGATTTCATGCAAGGGAAACACCGGTGAGGCCCGGAGTCACCTAGTGCAG | 10500 fluorescence intensity (a.u.)
TGGAGAATTTAATAAAATTAAATTTAACAATGTCATTTTACGGAGTCACCTAGTGCAG | 3230 fluorescence intensity (a.u.)
CCTTAATGGATGAAATCCTTCATGCTGTATGTTCCCACTTCGGAGTCACCTAGTGCAG | 23500 fluorescence intensity (a.u.)
AAGACTAATTAATCCGTTATTACCACATTATCAAATCATGCGGAGTCACCTAGTGCAG | 30100 fluorescence intensity (a.u.)
AGTTGACTGTCAATCTTTCATGAGGACATATTCTAGTTTACGGAGTCACCTAGTGCAG | 38600 fluorescence intensity (a.u.)
AAGATAAATGTAACTGTCTTATTGCGCCCGCGCGGATGCCCGGAGTCACCTAGTGCAG | 3330 fluorescence intensity (a.u.)
GCTCTTGCCATATCAATTGATATGATGCATACATCACAAACGGAGTCACCTAGTGCAG | 3390 fluorescence intensity (a.u.)
AAAGATGACAACAAACATACAAATTTATTTGTTGTTTTATCGGAGTCACCTAGTGCAG | 3530 fluorescence intensity (a.u.)
AGAACCAATCAGGCGGGAGACAACTGGACAACCGTCAGCCCGGAGTCACCTAGTGCAG | 15200 fluorescence intensity (a.u.)
CTCATCAATGTATTGATTGCATCCTGCAAATAGTTCAGGGCGGAGTCACCTAGTGCAG | 23800 fluorescence intensity (a.u.)
TCAGTATGTGATTGATTGAAAACTGAAATGGTAGACATACCGGAGTCACCTAGTGCAG | 53400 fluorescence intensity (a.u.)
CCAAGCAAATAATCCGATAGATTGAATCGGTGAGTTACCACGGAGTCACCTAGTGCAG | 9630 fluorescence intensity (a.u.)
CAGAATTATATAAATTCTGGCTCCACCACTGACTGCGACACGGAGTCACCTAGTGCAG | 4010 fluorescence intensity (a.u.)
TAACTGAAATGTAATTATATTGTAACTGCACTATGACTGCCGGAGTCACCTAGTGCAG | 18100 fluorescence intensity (a.u.)
CAGTGAAAATTGATACGCTATGAAACCCAACAAGATTGAACGGAGTCACCTAGTGCAG | 8120 fluorescence intensity (a.u.)
GTCATTACAATTATTAGTCTATTTGTAGCCGTGCAATTGGCGGAGTCACCTAGTGCAG | 6320 fluorescence intensity (a.u.)
TTTCTTTAATTATATTCTTCTGTTAAGACAAGCAAGGGAACGGAGTCACCTAGTGCAG | 8320 fluorescence intensity (a.u.)
TCCATACATTATTGACGTAATCATAAATATACATCCATGTCGGAGTCACCTAGTGCAG | 16600 fluorescence intensity (a.u.)
AAAATATATTTAATTATTAATTTGGTGATACTAATTTAGTCGGAGTCACCTAGTGCAG | 14200 fluorescence intensity (a.u.)
AACGAGATTGGGGATAAGATAGAAAGAAAATTAAATAAGGCGGAGTCACCTAGTGCAG | 14700 fluorescence intensity (a.u.)
CAATTAGTACAATTAAGTCAATAGTGATTCAGGCAACAGCCGGAGTCACCTAGTGCAG | 4490 fluorescence intensity (a.u.)
GATAATTGCACCAAATTTACTTTCTTCAAGCTATAAGTGCCGGAGTCACCTAGTGCAG | 42100 fluorescence intensity (a.u.)
CTAATTAAATAATCTTGGATGATAGAAAGACAAGTGATTTCGGAGTCACCTAGTGCAG | 5130 fluorescence intensity (a.u.)
CTACCTAATTAGGTCAATAAAATTGTATAACAGAGTCGAGCGGAGTCACCTAGTGCAG | 39000 fluorescence intensity (a.u.)
ATTAATTGTCGATCATGCTATTGTCGTGGATTAGTCAAGCCGGAGTCACCTAGTGCAG | 37400 fluorescence intensity (a.u.)
TCCTAATTTCCTCAACCTACAGGGTCACATGCAACAGACACGGAGTCACCTAGTGCAG | 3440 fluorescence intensity (a.u.)

Sequence | binding signal
CTCTAACATTATCAAAATTGGGTACGGTTAATTTAGAGCACGGAGTCACCTAGTGCAG | 6190 fluorescence intensity (a.u.)
TATGATTGATATCCACGAATTGAAGAAGAAGTTGCATTGCCGGAGTCACCTAGTGCAG | 55300 fluorescence intensity (a.u.)
GACGGATTAATTATGCTGAATAAATTCGTCAAGCAGTTTCCGGAGTCACCTAGTGCAG | 16200 fluorescence intensity (a.u.)
ATTTAAATTTCCATCCTTAAATTTGAAGGTGATTTTGAGGCGGAGTCACCTAGTGCAG | 21500 fluorescence intensity (a.u.)
TAGTTATTTTAATTTATCATTAAAATGTTGTAGTCATGAACGGAGTCACCTAGTGCAG | 4460 fluorescence intensity (a.u.)
GATTTAATTACAACGAATACAACAGTGTGATCGGATTGTACGGAGTCACCTAGTGCAG | 13200 fluorescence intensity (a.u.)
ATCTAAATTTCATCTGCTCTTGTTTATGCATGTAACCAAGCGGAGTCACCTAGTGCAG | 3510 fluorescence intensity (a.u.)
CCTGATGGGCCTAAACTCGAAAATTAATGGGCCTAACTTGCGGAGTCACCTAGTGCAG | 22300 fluorescence intensity (a.u.)
AATTAAATGGTGAAGGGTTATGATTGGGAAGAGAATGCCGCGGAGTCACCTAGTGCAG | 11300 fluorescence intensity (a.u.)
GGACAGATGTAATTTAATATTATATACAGACATAAATGTACGGAGTCACCTAGTGCAG | 4960 fluorescence intensity (a.u.)
CTACTGTACTAATTAATTTCAATCACAATCCCGTCTTGTGCGGAGTCACCTAGTGCAG | 34300 fluorescence intensity (a.u.)
CTTCCTCATCATAGGATGATTGATTACCTAAGGAGCTCCCCGGAGTCACCTAGTGCAG | 31900 fluorescence intensity (a.u.)
ACTATGATTATTATAGGTAACATATAAATTATTAGTCAGGCGGAGTCACCTAGTGCAG | 31900 fluorescence intensity (a.u.)
AAAGGAATTATGGTCTAATTTTAGTGAAGGTGAAAAGTAGCGGAGTCACCTAGTGCAG | 3510 fluorescence intensity (a.u.)
AGAGGGAATTGCTAGTCAATTGTGGGTGCTTAATTTGTGCCGGAGTCACCTAGTGCAG | 7720 fluorescence intensity (a.u.)
GTTTCTAACTGAAGATGGATTGAAGAGTGTTGTTGATTCCCGGAGTCACCTAGTGCAG | 10800 fluorescence intensity (a.u.)
TTAGATTTCAATCGCTTTTGATTTGAGGGTCATGAAGTGACGGAGTCACCTAGTGCAG | 7670 fluorescence intensity (a.u.)
GTTGATTTGTAAACGCACTGAACGGTTTATATGATGTGCTCGGAGTCACCTAGTGCAG | 44000 fluorescence intensity (a.u.)
GAGATGGATGATTGCACTCCACTAAATAGAAGTTTGGTGGCGGAGTCACCTAGTGCAG | 18500 fluorescence intensity (a.u.)
CGAAATAAAATTATATTATATTGTTAATATAATGGGTGAACGGAGTCACCTAGTGCAG | 13000 fluorescence intensity (a.u.)
GGCCGTTACACCTCCTGTAGCTAGCTGTAGGCACCTCAGCCGGAGTCACCTAGTGCAG | 24700 fluorescence intensity (a.u.)
TAGCTGATAGACGGGTCGCCTGGATATTTTCTCCGTCGATCGGAGTCACCTAGTGCAG | 16700 fluorescence intensity (a.u.)
CCTAATTGCTACTGATCACCGAGTAGCTCGTTTCACCTACCGGAGTCACCTAGTGCAG | 45500 fluorescence intensity (a.u.)
CTGAGATGCTAATTGTGTGTACACTGTTGAGCACATTTGACGGAGTCACCTAGTGCAG | 3680 fluorescence intensity (a.u.)
AACTTGATCATTACAACAATTAAGTTGCCTCTTGAATCCACGGAGTCACCTAGTGCAG | 5110 fluorescence intensity (a.u.)
ATAATATAATTACATTTTAATTATAATGTATTTATATTAACGGAGTCACCTAGTGCAG | 28100 fluorescence intensity (a.u.)
AGATCTGATTGATATTGATCCATCGCCGATCGATTGATCACGGAGTCACCTAGTGCAG | 53800 fluorescence intensity (a.u.)
